Results are given in words; binding and its absence hold for the method and conditions named. Binding seen in cells or lysates may run through a third protein. Some binding calls cover weakened binding; strength is not graded here.
B1: dopamine beta hydroxylase (protein, UniProt P09172 1-617)
chain: MPALSRWASLPGPSMREAAFMYSTAVAIFLVILVAALQGSAPRESPLPYHIPLDPEGSLELSWNVSYTQEAIHFQLLVRRLKAGVLFGMSDRGELENADLVVLWTDGDTAYFADAWSDQKGQIHLDPQQDYQLLQVQRTPEGLTLLFKRPFGTCDPKDYLIEDGTVHLVYGILEEPFRSLEAINGSGLQMGLQRVQLLKPNIPEPELPSDACTMEVQAPNIQIPSQETTYWCYIKELPKGFSRHHIIKYEPIVTKGNEALVHHMEVFQCAPEMDSVPHFSGPCDSKMKPDRLNYCRHVLAAWALGAKAFYYPEEAGLAFGGPGSSRYLRLEVHYHNPLVIEGRNDSSGIRLYYTAKLRRFNAGIMELGLVYTPVMAIPPRETAFILTGYCTDKCTQLALPPSGIHIFASQLHTHLTGRKVVTVLVRDGREWEIVNQDNHYSPHFQEIRMLKKVVSVHPGDVLITSCTYNTEDRELATVGGFGILEEMCVNYVHYYPQTQLELCKSAVDAGFLQKYFHLINRFNNEDVCTCPQASVSQQFTSVPWNSFNRDVLKALYSFAPISMHCNKSSAVRFQGEWNLQPLPKVISTLEEPTPQCPTSQGRSPAGPTVVSIGGGKG
B2: GIGYF2/PARK11 (protein, UniProt Q6Y7W6 1-1299)
chain: MAAETQTLNFGPEWLRALSSGGSITSPPLSPALPKYKLADYRYGREEMLALFLKDNKIPSDLLDKEFLPILQEEPLPPLALVPFTEEEQRNFSMSVNSAAVLRLTGRGGGGTVVGAPRGRSSSRGRGRGRGECGFYQRSFDEVEGVFGRGGGREMHRSQSWEERGDRRFEKPGRKDVGRPNFEEGGPTSVGRKHEFIRSESENWRIFREEQNGEDEDGGWRLAGSRRDGERWRPHSPDGPRSAGWREHMERRRRFEFDFRDRDDERGYRRVRSGSGSIDDDRDSLPEWCLEDAEEEMGTFDSSGAFLSLKKVQKEPIPEEQEMDFRPVDEGEECSDSEGSHNEEAKEPDKTNKKEGEKTDRVGVEASEETPQTSSSSARPGTPSDHQSQEASQFERKDEPKTEQTEKAEEETRMENSLPAKVPSRGDEMVADVQQPLSQIPSDTASPLLILPPPVPNPSPTLRPVETPVVGAPGMGSVSTEPDDEEGLKHLEQQAEKMVAYLQDSALDDERLASKLQEHRAKGVSIPLMHEAMQKWYYKDPQGEIQGPFNNQEMAEWFQAGYFTMSLLVKRACDESFQPLGDIMKMWGRVPFSPGPAPPPHMGELDQERLTRQQELTALYQMQHLQYQQFLIQQQYAQVLAQQQKAALSSQQQQQLALLLQQFQTLKMRISDQNIIPSVTRSVSVPDTGSIWELQPTASQPTVWEGGSVWDLPLDTTTPGPALEQLQQLEKAKAAKLEQERREAEMRAKREEEERKRQEELRRQQEEILRRQQEEERKRREEEELARRKQEEALRRQREQEIALRRQREEEERQQQEEALRRLEERRREEEERRKQEELLRKQEEEAAKWAREEEEAQRRLEENRLRMEEEAARLRHEEEERKRKELEVQRQKELMRQRQQQQEALRRLQQQQQQQQLAQMKLPSSSTWGQQSNTTACQSQATLSLAEIQKLEEERERQLREEQRRQQRELMKALQQQQQQQQQKLSGWGNVSKPSGTTKSLLEIQQEEARQMQKQQQQQQQHQQPNRARNNTHSNLHTSIGNSVWGSINTGPPNQWASDLVSSIWSNADTKNSNMGFWDDAVKEVGPRNSTNKNKNNASLSKSVGVSNRQNKKVEEEEKLLKLFQGVNKAQDGFTQWCEQMLHALNTANNLDVPTFVSFLKEVESPYEVHDYIRAYLGDTSEAKEFAKQFLERRAKQKANQQRQQQQLPQQQQQQPPQQPPQQPQQQDSVWGMNHSTLHSVFQTNQSNNQQSNFEAVQSGKKKKKQKMVRADPSLLGFSVNASSERLNMGEIETLDDY
B3: thioredoxin (protein, UniProt P10599 1-105)
chain: MVKQIESKTAFQEALDAAGDKLVVVDFSATWCGPCKMIKPFFHSLSEKYSNVIFLEVDVDDCQDVASECEVKCMPTFQFFKKGQKVGEFSGANKEKLEATINELV

Chains of the proteins cited; added tags and fusions are not shown.
UniProt Q04656: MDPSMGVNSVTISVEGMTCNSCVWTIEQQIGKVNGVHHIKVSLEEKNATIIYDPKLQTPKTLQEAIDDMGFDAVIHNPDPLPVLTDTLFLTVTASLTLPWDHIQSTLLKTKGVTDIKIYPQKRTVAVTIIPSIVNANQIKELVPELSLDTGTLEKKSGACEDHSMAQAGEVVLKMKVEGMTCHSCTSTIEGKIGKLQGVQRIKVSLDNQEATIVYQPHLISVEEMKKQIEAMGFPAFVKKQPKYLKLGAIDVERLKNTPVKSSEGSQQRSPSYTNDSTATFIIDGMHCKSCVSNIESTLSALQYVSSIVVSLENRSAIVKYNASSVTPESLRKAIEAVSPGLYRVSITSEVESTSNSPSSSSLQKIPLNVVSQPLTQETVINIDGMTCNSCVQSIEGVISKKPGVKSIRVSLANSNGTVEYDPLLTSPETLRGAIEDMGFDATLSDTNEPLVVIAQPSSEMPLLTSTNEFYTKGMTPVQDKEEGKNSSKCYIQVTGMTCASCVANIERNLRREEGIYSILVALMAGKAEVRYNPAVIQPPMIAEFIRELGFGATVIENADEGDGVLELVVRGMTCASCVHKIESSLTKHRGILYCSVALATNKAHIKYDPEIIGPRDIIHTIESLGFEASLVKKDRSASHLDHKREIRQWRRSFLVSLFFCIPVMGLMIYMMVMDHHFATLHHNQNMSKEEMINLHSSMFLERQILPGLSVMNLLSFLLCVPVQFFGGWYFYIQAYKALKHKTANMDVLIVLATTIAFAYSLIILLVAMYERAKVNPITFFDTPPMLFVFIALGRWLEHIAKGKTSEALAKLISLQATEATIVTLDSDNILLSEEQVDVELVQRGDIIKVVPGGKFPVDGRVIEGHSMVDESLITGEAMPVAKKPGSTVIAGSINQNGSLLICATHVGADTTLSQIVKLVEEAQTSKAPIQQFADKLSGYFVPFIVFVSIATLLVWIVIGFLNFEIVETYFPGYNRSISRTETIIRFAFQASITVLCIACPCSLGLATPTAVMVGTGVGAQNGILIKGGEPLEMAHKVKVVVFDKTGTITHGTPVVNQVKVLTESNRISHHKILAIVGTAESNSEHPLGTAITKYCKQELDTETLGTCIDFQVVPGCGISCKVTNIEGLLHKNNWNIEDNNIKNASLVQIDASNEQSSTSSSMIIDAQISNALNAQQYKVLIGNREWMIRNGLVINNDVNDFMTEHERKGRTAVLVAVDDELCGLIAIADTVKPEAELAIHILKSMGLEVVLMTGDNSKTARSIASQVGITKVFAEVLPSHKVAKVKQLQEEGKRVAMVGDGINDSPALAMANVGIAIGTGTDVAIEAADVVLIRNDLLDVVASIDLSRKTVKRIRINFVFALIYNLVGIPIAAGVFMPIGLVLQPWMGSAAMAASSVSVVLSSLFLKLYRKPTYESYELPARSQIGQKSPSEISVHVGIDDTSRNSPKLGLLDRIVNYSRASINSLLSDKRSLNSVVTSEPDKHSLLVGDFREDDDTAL
UniProt P19838: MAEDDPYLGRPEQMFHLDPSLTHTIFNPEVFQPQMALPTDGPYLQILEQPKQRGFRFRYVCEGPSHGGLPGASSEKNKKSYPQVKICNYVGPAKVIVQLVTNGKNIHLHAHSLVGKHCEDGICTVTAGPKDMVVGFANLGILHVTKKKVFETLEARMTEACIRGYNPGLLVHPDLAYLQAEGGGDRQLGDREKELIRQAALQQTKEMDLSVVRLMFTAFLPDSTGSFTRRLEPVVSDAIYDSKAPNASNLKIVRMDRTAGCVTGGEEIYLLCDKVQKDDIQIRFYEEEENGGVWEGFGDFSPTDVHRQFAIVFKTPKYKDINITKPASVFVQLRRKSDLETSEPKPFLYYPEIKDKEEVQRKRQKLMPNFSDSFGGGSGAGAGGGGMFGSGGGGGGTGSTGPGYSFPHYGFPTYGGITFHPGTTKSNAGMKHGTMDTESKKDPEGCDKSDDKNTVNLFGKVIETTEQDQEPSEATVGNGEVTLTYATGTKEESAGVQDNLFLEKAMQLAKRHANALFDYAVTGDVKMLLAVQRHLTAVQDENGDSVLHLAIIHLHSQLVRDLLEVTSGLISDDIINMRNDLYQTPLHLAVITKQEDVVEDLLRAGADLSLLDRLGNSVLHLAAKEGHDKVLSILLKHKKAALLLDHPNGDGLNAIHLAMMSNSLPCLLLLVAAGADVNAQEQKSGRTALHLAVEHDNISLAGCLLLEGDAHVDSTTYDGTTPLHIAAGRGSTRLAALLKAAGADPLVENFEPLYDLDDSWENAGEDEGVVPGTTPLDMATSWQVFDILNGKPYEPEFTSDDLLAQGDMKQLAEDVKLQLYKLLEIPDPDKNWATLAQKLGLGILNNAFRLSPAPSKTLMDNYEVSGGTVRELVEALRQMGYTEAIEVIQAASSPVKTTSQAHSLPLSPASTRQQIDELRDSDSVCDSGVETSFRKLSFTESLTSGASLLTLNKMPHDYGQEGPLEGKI
UniProt P46459: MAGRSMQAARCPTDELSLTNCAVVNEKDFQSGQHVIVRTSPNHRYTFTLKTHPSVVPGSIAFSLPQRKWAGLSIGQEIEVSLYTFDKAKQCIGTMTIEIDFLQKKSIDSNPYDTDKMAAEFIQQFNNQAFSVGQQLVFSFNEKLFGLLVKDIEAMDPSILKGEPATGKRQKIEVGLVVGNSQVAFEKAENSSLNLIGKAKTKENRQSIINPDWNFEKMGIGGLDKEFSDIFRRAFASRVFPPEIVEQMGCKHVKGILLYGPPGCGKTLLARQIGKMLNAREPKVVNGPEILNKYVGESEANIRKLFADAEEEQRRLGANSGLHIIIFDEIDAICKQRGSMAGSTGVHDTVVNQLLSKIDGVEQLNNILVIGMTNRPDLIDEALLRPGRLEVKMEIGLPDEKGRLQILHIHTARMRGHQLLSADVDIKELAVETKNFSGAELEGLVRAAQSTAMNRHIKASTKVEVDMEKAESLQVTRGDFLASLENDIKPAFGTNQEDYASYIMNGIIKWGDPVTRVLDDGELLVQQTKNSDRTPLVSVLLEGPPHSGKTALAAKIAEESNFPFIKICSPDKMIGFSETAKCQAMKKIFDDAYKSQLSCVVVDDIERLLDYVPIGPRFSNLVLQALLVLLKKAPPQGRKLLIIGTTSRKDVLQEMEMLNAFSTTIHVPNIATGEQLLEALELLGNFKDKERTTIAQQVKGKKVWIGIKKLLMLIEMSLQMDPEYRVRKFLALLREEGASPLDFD
UniProt Q96N67: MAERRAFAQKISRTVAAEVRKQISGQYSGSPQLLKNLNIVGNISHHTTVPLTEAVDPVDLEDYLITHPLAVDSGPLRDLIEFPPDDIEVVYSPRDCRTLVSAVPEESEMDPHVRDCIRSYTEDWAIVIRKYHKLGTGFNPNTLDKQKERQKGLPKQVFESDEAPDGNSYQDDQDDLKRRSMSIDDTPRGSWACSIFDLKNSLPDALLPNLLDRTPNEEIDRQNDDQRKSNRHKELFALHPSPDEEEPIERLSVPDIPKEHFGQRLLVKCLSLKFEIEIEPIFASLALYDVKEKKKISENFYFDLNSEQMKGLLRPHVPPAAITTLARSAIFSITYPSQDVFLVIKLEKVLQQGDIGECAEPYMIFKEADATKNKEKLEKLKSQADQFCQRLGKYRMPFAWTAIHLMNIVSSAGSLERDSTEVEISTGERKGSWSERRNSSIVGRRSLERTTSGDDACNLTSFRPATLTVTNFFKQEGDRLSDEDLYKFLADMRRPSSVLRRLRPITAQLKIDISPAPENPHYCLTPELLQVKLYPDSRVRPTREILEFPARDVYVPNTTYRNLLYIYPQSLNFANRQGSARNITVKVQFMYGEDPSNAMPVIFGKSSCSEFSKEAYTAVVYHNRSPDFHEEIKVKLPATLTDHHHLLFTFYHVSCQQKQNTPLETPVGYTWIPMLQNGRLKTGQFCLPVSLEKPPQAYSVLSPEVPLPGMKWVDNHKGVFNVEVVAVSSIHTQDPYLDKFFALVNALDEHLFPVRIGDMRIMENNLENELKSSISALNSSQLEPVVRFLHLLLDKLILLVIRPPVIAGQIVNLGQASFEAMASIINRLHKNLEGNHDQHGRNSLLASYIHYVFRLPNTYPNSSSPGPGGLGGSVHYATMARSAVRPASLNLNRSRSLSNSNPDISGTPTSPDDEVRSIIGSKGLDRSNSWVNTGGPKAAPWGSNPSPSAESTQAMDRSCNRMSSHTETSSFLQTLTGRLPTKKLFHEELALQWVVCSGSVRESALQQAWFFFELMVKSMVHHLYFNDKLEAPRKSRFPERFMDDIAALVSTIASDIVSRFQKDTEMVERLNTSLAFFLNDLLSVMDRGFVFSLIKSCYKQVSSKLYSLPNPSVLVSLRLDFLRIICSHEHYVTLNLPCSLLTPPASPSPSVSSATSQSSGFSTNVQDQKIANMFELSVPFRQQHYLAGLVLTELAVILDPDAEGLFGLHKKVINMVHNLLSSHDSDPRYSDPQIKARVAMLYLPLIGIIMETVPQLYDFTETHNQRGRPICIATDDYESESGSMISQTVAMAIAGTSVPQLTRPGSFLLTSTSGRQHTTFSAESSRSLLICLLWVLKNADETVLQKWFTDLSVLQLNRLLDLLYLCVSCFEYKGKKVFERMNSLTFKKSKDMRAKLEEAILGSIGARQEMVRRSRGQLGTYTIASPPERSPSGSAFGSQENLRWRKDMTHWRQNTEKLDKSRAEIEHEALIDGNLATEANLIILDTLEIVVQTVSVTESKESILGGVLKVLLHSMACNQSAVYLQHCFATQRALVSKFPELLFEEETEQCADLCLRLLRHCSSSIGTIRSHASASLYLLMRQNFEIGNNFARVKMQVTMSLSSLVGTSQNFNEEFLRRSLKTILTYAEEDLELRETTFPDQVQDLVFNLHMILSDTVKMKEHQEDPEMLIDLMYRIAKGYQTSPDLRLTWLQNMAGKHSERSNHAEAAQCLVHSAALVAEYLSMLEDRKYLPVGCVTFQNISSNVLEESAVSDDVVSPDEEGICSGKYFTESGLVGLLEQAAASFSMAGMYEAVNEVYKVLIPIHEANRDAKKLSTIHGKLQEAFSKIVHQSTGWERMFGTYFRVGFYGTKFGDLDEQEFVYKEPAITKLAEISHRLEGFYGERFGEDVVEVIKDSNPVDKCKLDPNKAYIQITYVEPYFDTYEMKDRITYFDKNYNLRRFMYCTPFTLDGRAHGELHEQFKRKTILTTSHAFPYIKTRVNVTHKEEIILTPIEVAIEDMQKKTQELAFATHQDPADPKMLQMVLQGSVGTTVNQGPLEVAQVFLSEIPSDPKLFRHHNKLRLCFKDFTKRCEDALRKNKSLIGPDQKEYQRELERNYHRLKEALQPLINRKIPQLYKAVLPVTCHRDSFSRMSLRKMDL

target: ATP7A (human (endogenous in SH-SY5Y)) (UniProt Q04656); experiment: co-IP; SH-SY5Y cells cross-linked with DSP (also after BCS or CuCl2 pre-treatment), lysed in buffer A with 0.5% Triton X-100; ATP7A immunoprecipitated with monoclonal antibody on Dynal magnetic beads, 2 hr at 4°C; control with 22 uM antigenic ATP7A peptide; immunoblot

Molecule	binding
B1	binds
B2	binds
B3	no binding

target: ATP7A (human (endogenous in SH-SY5Y)) (UniProt Q04656); experiment: as above; remark: another data set of the same source

Molecule	binding
NFKB1 (from UniProt P19838 1-968)	binds
NSF (from UniProt P46459 1-744)	binds
DOCK7 (from UniProt Q96N67 1-2140)	binds

Reference: paper PMC5400511
